± gives the standard deviation of the averaged measurements. The list shows a part of the results.
What follows are sequences tested on PfAP2-G AP2 domain (GST-tagged) (assay: gcPBM binding intensity (ln(normalized median fluorescence intensity)); higher = stronger DNA binding).
Method in brief: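 GST-tagged P. falciparum DNA-binding domains, expressed in E. coli (about 25 μg on average), were applied for 1 h to an Agilent 4 × 180k array of primer-extended double-stranded 36-bp intergenic genomic probes plus negative controls. The binding buffer was 1× PBS with 1% milk, 0.2 mg/ml BSA, 0.5% salmon testes DNA and 0.03% Triton X-100. Bound protein was detected with Alexa488 anti-GST antibody and scanned at 488 nm. Binding intensity is the highest Masliner-normalised natural-log median intensity across replicate spots of either probe orientation.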

| Sequence | gcPBM binding intensity (ln) |
| --- | --- |
| TATAAAATATAAATAAATAAATAAATATATATATAT [TGCATGCA_negctrl_site448] | 9.9 ± 0.71 |
| TATTTTATACACTTGCTAAAACATTAACACATATGT [CACACA_negctrl_site1818] | 10.02 ± 0.085 |
| ATGAAAATATTTAAAAGTACAGAAATATAAAACCTT [XGTACX_site403] | 11.4 ± 0.79 |
| CACAAATATACAAATACACACAAATATACACATATA [CACACA_site7176] | 10.2 ± 0.085 |
| AAAAAAAAAAAAAAAAGTACAAAAATTATATTAAGA [XGTACX_site4255] | 11.5 ± 0.84 |
| ACTAATAACAAAAGCTTGCACTTTTTTTTTCCTAAT | 10.2 ± 0.11 |
| TATAATTTTCTTAGTAGTACATTTTAAATCTACTAC [XGTACX_site2621] | 11.4 ± 0.96 |
| TGTATCCACATATGTACACACATATATCTGTATATG [CACACA_site5668] | 11.4 ± 0.88 |
| TATGTACAAATATGTACACACACACCGATATATATA [CACACA_site4487] | 11.6 ± 0.98 |
| TGTCATAAAACCGTTTGTACATATTAATAGACACCT [XGTACX_site4520] | 11 ± 0.53 |
| TTGTTATTCCACCGTTGTACAGTTATATACATACAC [XGTACX_site8296] | 11.1 ± 0.55 |
| TATAATAATAATGATAGTACGTATGAGTTCAAGAAA [XGTACX_site4918] | 11 ± 0.63 |
| ATATTCCTTTAATATTGTACTATTTTTTTCCTTATA [XGTACX_site8659] | 11.2 ± 0.59 |
| ACCTATATAAATTATACACACAAATATAAATATATA [CACACA_site2843] | 9.96 ± 0.25 |
| AATTATATATAACGTAGTACATATTATAAACCACGT [XGTACX_site8816] | 11.5 ± 0.73 |
| TCCATGCAGAAACACACACACAAAAAAAAATTCTTT [CACACA_site4099] | 10 ± 0.28 |
| ATCTATGGGTAGTATACACACTGTATATTTAGGAAT [CACACA_site5569] | 9.97 ± 0.11 |
| ATTCTATTCTCCTTCACACACAAAAATATTTCATCA [CACACA_site2360] | 10.1 ± 0.26 |
| TTTTTGCAAAAAGAAATAATTTTATTTTAGTTCGGA [CACACA_negctrl_site1718] | 9.745 ± 0.007 |
| TTACGAATAAAACAGTGTACATTGAATTTCTATGAG [XGTACX_site4771] | 11.2 ± 0.57 |
| AAAAAAATTACATATCCATTTTAACATAATAAATAG [GTGCAC_negctrl_site618] | 9.9 ± 0.13 |
| ACACATATATATTATTATTATATAATATATATATAT [CACACA_negctrl_site1545] | 9.65 ± 0.014 |

| Sequence | gcPBM binding intensity (ln) |
| --- | --- |
| ATATAATATTTCATGTGGACACATTTTATGATTGTA [XGTACX_site8770] | 11.3 ± 0.83 |
| ACATGTTTTATGTGCACACAAAGTTGTTATGAGGTT [CACACA_site4031] | 10.5 ± 0.24 |
| ATATATTGAAAAAAATGTACGTATTTTTTTATGTTA [XGTACX_site4654] | 11.4 ± 0.63 |
| ATTATATATATATATACACACACACCCTAAAAATAT [CACACA_site8463] | 10.4 ± 0.35 |
| ATAGTAAACGAAATAAAAAGATTAGCATAATATCCT [CACACA_negctrl_site1730] | 9.79 ± 0.11 |
| ATTGTTTATATTGATTGTACTCATTTTTTTTTTATT [XGTACX_site1946] | 11.5 ± 0.99 |
| ATATATTATATATATTACAACTTAAGAATATACATA [TGCATGCA_negctrl_site371] | 9.685 ± 0.021 |
| TCCTGTGATTATATAACACACATTATTGCTTATAAG [CACACA_site1518] | 9.85 ± 0.042 |
| AATCAAAATTAATTAACACACAATTTTAATATTCTT [CACACA_site2063] | 9.76 |
| TATGAATGTATATGTTGTACATATAAATATTTATAT [XGTACX_site1146] | 11.1 ± 0.75 |
| ATTATTATATAGTGTGCATGCAATATTAATAAAACC [TGCATGCA_site245] | 10.2 ± 0.22 |
| TTATTAAATTTTTTTTGTACTTATATATATATATAT [XGTACX_site2443] | 11.2 ± 0.79 |
| AATAAATATATTACATATATGTGTAGTATTTTTTTA [TGCATGCA_negctrl_site268] | 9.9 ± 0.085 |
| TAAGCTTGTAACAGTTTACACACTAATATTTATAAA [CACACA_site3907] | 9.95 ± 0.13 |
| AATATATTTATGCTCATGCACTTTTTTTTTTTTTTT [GTGCAC_site9654] | 10.3 ± 0.16 |
| TAATTTCTTATGTATTGTACATATAATATATGATAT [XGTACX_site4898] | 10.9 ± 0.61 |
| AAAATAAATAGATAAGCACACAAGCATATAGACATA [CACACA_site7958] | 9.865 ± 0.049 |
| TAGACTAATCCCAAAAGTACAGAAAAATTATATTAT [XGTACX_site8663] | 11.3 ± 0.89 |
| TATATTTACATTGTAACACACATGAAATATTTATAT [CACACA_site6178] | 9.955 ± 0.049 |
| TATGTTATATTATAAGGATAAATTTTGATTATATAA [TGCATGCA_negctrl_site600] | 9.81 ± 0.2 |
| AGAATAAAAAGGAACACACACACACCCATATATATA [CACACA_site3590] | 10.2 ± 0.25 |
| ATGTACATTTTTTTCACACATACATTAATTTATGAG [CACACA_site5801] | 11.3 ± 0.87 |

| Sequence | gcPBM binding intensity (ln) |
| --- | --- |
| TATCAATATTAAAAAGTGCAAAATAAAATATAAAAT [GTGCAC_site9486] | 10.1 ± 0.14 |
| TATATTATATATTGGGGTACATATATATAAATATAA [XGTACX_site2296] | 11.4 ± 1.1 |
| ACATACAAGAATTAAACACACACAAAATATAAATTC [CACACA_site8985] | 9.915 ± 0.049 |
| TCTTGTATATACAGTAGTACTAAAAATTATTAAATA [XGTACX_site7896] | 11.2 ± 0.75 |
| TGTTTTTTGTTCTTTACAAAAAAAAAAAAAAAAAAA [GTGCAC_negctrl_site61] | 9.62 ± 0.19 |
| ATTATAATGGTAAAGTGTACAAATTTTTATTACACC [XGTACX_site5274] | 11.1 ± 0.61 |
| ATAAATATAAAAATTTGTACATATATAGGTATAGGT [XGTACX_site1735] | 10.9 ± 0.43 |
| TTATGTTGTAAATGCACACATACAAATACAGATACA [CACACA_site4876] | 10.3 ± 0.17 |
| GAAAACAAATATGTAGCACACATTCACATAATATAT [CACACA_site8731] | 9.97 ± 0.014 |
| TAATAAAAAAAGTGCACACACATAATATTTATATAT [CACACA_site7548] | 10.6 ± 0.53 |
| CATTATTTACCGCCGTGTACGTAATGAGAAATTAAA [XGTACX_site4662] | 11.5 ± 0.99 |
| TTATTTCAAATTAATTTACACACTTCATACTAAAAG [CACACA_site9039] | 10.1 ± 0.18 |
| TATTTAATTACATGAACACACATTAGATATTTTTAA [CACACA_site7405] | 9.93 ± 0.14 |
| TTTATTTATTATTAAAGTACTAAATTACATTATTAT [XGTACX_site6624] | 10.7 ± 0.66 |
| TATATAACATATGGGACACACATGCAACTGTTATAT [CACACA_site3792] | 10.5 ± 0.35 |
| TCGGTATCTGTTCAAAGTACACATTTGTATACAAAA [XGTACX_site1890] | 11.4 ± 0.93 |
| ACACTATCTTAGATTTGTACATATTTATATATGTAT [XGTACX_site8739] | 10.8 ± 0.39 |
| AAAAATATTATGATGTTTATTAGAAAGGAAAAAACT [CACACA_negctrl_site1417] | 9.885 ± 0.035 |
| TTTTTATATTATTTAATGAGAAATAATTATAAACAA [CACACA_negctrl_site553] | 9.87 ± 0.26 |
| ATGTGATGTTATATATGTACTTATTTTTTAATAAGG [XGTACX_site1786] | 11.4 ± 0.88 |
| AAATGGGTTTATTTAACACACAAAAGAAAAAATATA [CACACA_site1938] | 10.04 ± 0.014 |
| TATATATATTTATGTTGTACAAAATATTATTACGTA [XGTACX_site5384] | 10.9 ± 0.7 |

| Sequence | gcPBM binding intensity (ln) |
| --- | --- |
| TTATATTATAACAAACGTACGAATTTTATACAAATA [XGTACX_site7258] | 10.8 ± 0.47 |
| TGCTTATCCATTTCTACACACAAAAAAAAAAAAAAA [CACACA_site37] | 10 ± 0.52 |
| CACCCGCACGTATTTGCACACATTGCCACGTAATTA [CACACA_site5786] | 10.6 ± 0.31 |
| TATTTTTACAATGGTAGTACCATTTTGAATCTTTGT [XGTACX_site6092] | 11.2 ± 0.79 |
| TTATATGTATGAACAAGTACATGCTATAATTATAAA [XGTACX_site1399] | 10.9 ± 0.71 |
| TATATATATATATACACACATACATATATATATTTG [CACACA_site857] | 10.1 ± 0.38 |
| CGTAGCCCCACTAACACACACAAATATACTCAATCA [CACACA_site5587] | 10.1 ± 0.22 |
| TTTTTTTTTTTTTGATGTACAATAATTAAAGAGTAA [XGTACX_site8403] | 11.2 ± 1.1 |
| AATAACTATATATGTGTGCACAAAAATTTGACATAA | 10.7 ± 0.36 |
| AGTAGTCTGGAGAAGAGTACATAGTTTCTGGTAGCT [XGTACX_site2023] | 11.2 ± 0.83 |
| ATATATATATATATATGTACATATATACATATATGT [XGTACX_site1521] | 11.1 ± 0.61 |
| ATATTTACCATTGTATGTACATATATAAAATATATC [XGTACX_site3237] | 11.1 ± 0.66 |
| GTATATATATATATATGTACATATTTAGAGTTCTGT [XGTACX_site5357] | 11.2 ± 0.69 |
| AAAACAAATGAGTACACACACATAAAAATTGAAAAT [CACACA_site199] | 11.5 ± 0.9 |
| TAAAGAAAAAAATGTTGTACTTTATGAAACATATTT [XGTACX_site412] | 11.2 ± 0.79 |
| AACATATACACGAACACACACACATATATATATATA [CACACA_site502] | 10.3 ± 0.26 |
| TTATAATATTGTGGTATACACACCTTACAAAAAGGT [CACACA_site2878] | 10.5 ± 0.28 |
| GGGAGAAATTTATACATACACACATATATATATTAT [CACACA_site4039] | 9.955 ± 0.078 |
| AAGAAAAACTTTACGTGTACCAAACATCCTGCCGAC [XGTACX_site4895] | 11 ± 0.52 |
| TAAACCTTAAAATATTTCTCATGTTTAACTTATATT [GTGCAC_negctrl_site233] | 9.75 ± 0.057 |
| AAAAAATAATTGAAGTGTACGTACAATGATTTTACT [XGTACX_site7663] | 11.8 ± 1.1 |
| GTATTCTACAGACACATACACACATATATATATATA [CACACA_site3427] | 10.29 ± 0.085 |

From the supplement of paper PMC11417369
